Test results reported in PubChem BioAssay AID686978 (National Center for Advancing Translational Sciences (NCATS), 2013).
Several values for one entry are separate records, joined by “and”; a condition that tells them apart may be missing. Equal entries are not always repeated. In all, about 420,000 compounds went through this assay and about 64,000 (15%) were called active. Inconclusive means that the source gave no clear call. Such entries were picked first, then a sample of the others. The call rests on the fitted dose curve; in most records, active means well fitted inhibition curve with a large enough effect; inconclusive means small, poorly fitted or top-dose-only effect; inactive means flat fitted curve, though single readings scatter. Potencies of inconclusive entries are left out as doubtful fits.

experiment: qHTS for Inhibitors of human tyrosyl-DNA phosphodiesterase 1 (TDP1): qHTS in cells in absence of CPT; settings: DT40 Tdp1-/- hTDP1 cells, no CPT, ATP luminescence, 48 h; activity change, negative = growth inhibition: at 46.2 µM (top of the series) unless noted; further: nearly all actives have a fitted effect of over 55% in size
Outline: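 Camptothecin absent (DMSO only). Human TDP1-complemented DT40 knockout cells, 400 cells/well, 37 °C for minimum 48 hr; ATP measured via CellTiter-Glo, 30 min dark incubation, luminescence.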
On the % scale 0 is the no-effect control and ±100 the full control effect; potency means the concentration at half of the fitted maximal effect; tags describe the fitted curve by direction and shape.

SMILES	Potency	activity change, negative = growth inhibition
O=S(=O)(c1ccc(Cl)c(Cl)c1)c1snnc1-c1ccccc1	active: 3.26 µM	–
COc1ccc(Cl)cc1NC(=O)Nc1ccc(C(=O)N2CCCC2)cc1	inconclusive [inhibitor, single point]	–
CC(C)(C)CNC(=O)c1cccc2c1C(=O)c1ccc(N3CCCC3)cc1S2(=O)=O	active: 16.4 µM	–
CCCCOc1ccc(Cc2c(COCC)[nH]c(=S)[nH]c2=O)cc1	inconclusive [inhibitor, single point]	–
CCOC(=O)C1CCN(C(=O)c2ccc(Cl)c(S(=O)(=O)N3CCOCC3)c2)CC1	–	inconclusive: -30.5% [inhibitor]
Cc1ccc(S(=O)(=O)Nc2c(C)cc(C)nc2Cl)cc1	–	inactive: -5.27%
CSc1ccc(CN(C)Cc2cc(=O)oc3c(C)c(C)ccc23)cc1	inconclusive [inhibitor, single point]	–
CCOC(=O)c1ccc(Nc2nc(C(=O)OCC)nc3ccccc23)cc1	active: 3.26 µM and active: 2.59 µM	–
O=C(CN1C(=O)COc2ccc(S(=O)(=O)N3CCCCC3)cc21)NCc1ccccc1Cl	inactive	–
C=CCn1c(CCCNC(=O)c2ccccc2OC)nc2ccccc21	inconclusive [inhibitor, single point]	–
CC(=O)Nc1nonc1-c1nc2ccccc2n1Cc1ccccc1	inconclusive [inhibitor, single point]	–
CCC(=O)Nc1cccc(-n2nnnc2SCC(=O)c2ccc(C)c(C)c2)c1	inconclusive [inhibitor, single point]	–
C=CCn1c(-c2ccccn2)n[nH]c1=S	–	inactive: 2.89%
COc1ccc(OCCSc2ncn[nH]2)cc1	–	inactive: -0.734%
Cc1cc(Nc2cc(Cl)ccc2C)n2nc(Cc3ccccc3)nc2n1	inconclusive [inhibitor, partial curve, poor fit]	–
COC(=O)[C@@H](NC(=O)N1CCC(Cc2ccccc2)CC1)C(C)C	–	inactive: -21.1%
Cc1ccc(C)c(CN2C(=O)c3ccccc3S(=O)(=O)c3ccc(C(=O)N4CCN(C)CC4)cc32)c1	inactive	–
Cc1cc(C)c(S(=O)(=O)NCC(c2ccc(N(C)C)cc2)N2CCc3ccccc32)c(C)c1 (centres undefined)	inconclusive [inhibitor, single point]	–
Cc1ccccc1C(=O)NNC(=S)NC(=O)c1ccc(Cl)cc1Cl	inconclusive [inhibitor, single point]	–
COc1ccccc1CC(=O)Nc1ccc(S(=O)(=O)N2CC(C)CC(C)C2)cc1 (centres undefined)	–	inactive: -5.91%
COc1ccc(CNC(=O)Cc2coc3ccc(C(C)C)cc23)cc1	inconclusive [inhibitor, single point]	–
COC(=O)Nc1sc2c(c1C(N)=O)CCC(C)C2 (centres undefined)	–	inactive: -3.36%
O=C(CSc1ccccc1)Nc1ccc2c(c1)OCCO2	–	inactive: 10.2%
COc1cccc(Cn2c(=O)c(-c3ccccc3)nc3cnc(N4CCNCC4)nc32)c1	inconclusive [inhibitor, single point]	–
O=C1/C(=C/c2ccc(Cl)cc2)NC(=S)N1Cc1cccnc1	–	inconclusive: -30.7% [inhibitor]

SMILES	Potency	activity change, negative = growth inhibition
Cc1ccc(C(=O)Nc2cccc(C(=O)O)c2)cc1	–	inactive: -15.1%
CCCOc1ccccc1C1CC(=O)Nc2cc3c(cc21)OCCO3 (centres undefined)	active: 0.651 µM	–
Cn1c(SCC#N)nc2ccccc2c1=O	inactive	–
CN(C)CCCN1C(=O)C2CCc3[nH]c4ccccc4c3C2C1=O (centres undefined)	–	inactive: -8.58%
COc1ccc(NCc2nnc(SCC(=O)NCc3ccccc3)n2-c2ccccc2OC)cc1	–	inactive: -6.44%
COc1ccccc1Nc1nc2ccc(C)cc2n2cnnc12	active: 18.4 µM	–
O=C(OCC1OC(n2ccc(=O)[nH]c2=O)C2OC12)c1ccccc1 (centres undefined)	–	inactive: -1.5%
Cc1cc(OCC(=O)Nc2ccncc2)cc(C)c1Br	inconclusive [inhibitor, partial curve]	–
O=C(COc1cccc2c1CCN(Cc1ccc(Cl)cc1)C2=O)N1CCOCC1	inconclusive [inhibitor, partial curve]	–
C=CCNC(=O)CC1C(=O)NCCN1Cc1ccc(-c2ccccc2)cc1 (centres undefined)	inconclusive [inhibitor, single point]	–
Cc1ccc(S(=O)(=O)N2CCOCC2)cc1C(=O)N(C)CCOc1ccc(Cl)cc1	active: 16.4 µM	–
COc1ccccc1NC(=O)CSc1oc(-c2ccco2)nc1S(=O)(=O)c1ccc(Br)cc1	inconclusive [inhibitor, single point]	–
CC1Cc2ccccc2N1CC(=O)NCc1ccccc1Cl (centres undefined)	inconclusive [inhibitor, single point]	–
COc1cccc(Nc2nnc(Cc3cccnc3)c3ccccc23)c1	–	inactive: -0.168%
COc1cccc(-c2cc(C(F)(F)F)c(C#N)c(=O)[nH]2)c1	inconclusive [inhibitor, single point]	–
CCCCCCCC(=O)NNC(=O)c1c(O)c2ccccc2n(CCC)c1=O	active: 23.1 µM	–
C[C@@H]1COC(=O)[C@@H](CC(=O)OC(C)(C)C)C/C=C\C[C@H](CC(=O)N(CCO)Cc2ccccc2)C(=O)N1	inconclusive [inhibitor, single point]	–
COc1cccc(CNC(=O)CCc2nc(-c3ccc(C)cc3)no2)c1	–	inactive: -22.7%
COc1ccc(CCN(C)C(=O)c2cc(-c3ccccc3)nc3ccccc23)cc1OC	active: 23.1 µM	–
CCCNC(=O)c1c(N)n(-c2cccc(OC)c2)c2nc3ccccc3nc12	inconclusive [inhibitor, single point]	–
Cc1ccc(C)c(OCC(=O)Nc2ccc(S(=O)(=O)Nc3ncccn3)cc2)c1	–	inactive: 15%
Cc1cc(C(=O)CSc2ncccn2)c(C)n1-c1cccc(F)c1	inconclusive [inhibitor, single point]	–
COc1ccc(NC(=O)N2CCCC(C(=O)NCCc3ccccc3)C2)cc1 (centres undefined)	inconclusive [inhibitor, single point]	–
CCCC1NC(=O)c2cc3ccccc3cc2-n2c1nc1cc(Cl)ccc1c2=O (centres undefined)	inconclusive [inhibitor, single point]	–
